# Measurements reported in PubChem BioAssay AID624171 (National Center for Advancing Translational Sciences (NCATS), 2012).
# The campaign covered roughly 410,000 compounds. About 1,200 (0.29%) were called active. Inconclusive results, whose numbers are uncertain, are shown with a selection of clear calls. Calls follow the shape of the dose curve; as a rule, active = well fitted activation curve with a large enough effect; inconclusive = small, poorly fitted or top-dose-only effect; inactive = flat fitted curve, though single readings scatter. Where the call is inconclusive, the potency comes from a doubtful curve fit.
# Assay: qHTS of Nrf2 Activators; also: nearly all actives have a fitted effect of over 65% in size
# Settings: AREc32 ARE-luciferase reporter (MCF7-derived line), luminescence, 24 h; series mostly up to 46.1 µM
# Outline: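 AREc32 cells carrying an ARE-driven firefly luciferase reporter were seeded at 1000 cells/well in OPTI-MEM with 5% FBS, then exposed to compound for 24 hr at 37 deg C. Luminescence was read with Steady-Glo after 30 min at RT.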
# Potency is read from the fitted curve at half-maximal effect; tags tell the direction and shape of the fitted curve.
row,Compound,Potency
1,CNc1nc(Nc2ccc(C)c(Cl)c2)nc(N)c1[N+](=O)[O-],"inconclusive: 8.91 µM [activator, partial curve, poor fit]"
2,Cc1nc([N+](=O)[O-])c(Br)n1CC(=O)c1ccccc1,"inconclusive: 14.1 µM [activator, single point]"
3,Cc1cc(O)c(C(=O)/C=C/c2ccccc2)c(=O)o1,"inconclusive: 35.5 µM [activator, partial curve, poor fit]"
4,Cc1csc2nc(NC(=O)c3ccccc3)sc(=O)c12,active: 3.16 µM
5,CCCCCCNC(=O)c1cc(-c2ccco2)nc2ccccc12,"inconclusive: 14.1 µM [activator, single point]"
6,CCOc1cccc2cc(-c3nnc(NCc4ccco4)s3)c(=O)oc12,"inconclusive: 14.1 µM [activator, single point]"
7,C=CC(=O)Nc1cccc(Oc2cc(Cl)nc3[nH]ccc23)c1,"inconclusive: 28.2 µM [activator, single point]"
8,Cc1ccc2nc(Nc3nc(-c4ccccc4)cc(=O)[nH]3)nc(C)c2c1,inactive
9,N=c1c(S(=O)(=O)c2ccc(Br)cc2)cc2c(=O)n3ccccc3nc2n1Cc1ccccc1,inactive
10,CN1CCc2c(sc3c2C(=O)NC(c2ccco2)N3)C1 (configuration not stated),inactive
11,Fc1ccccc1-c1nc(-c2ccncc2)no1,active: 12.6 µM
12,O=C1CSC(c2cn(-c3ccccc3)nc2-c2cc3ccccc3oc2=O)N1Cc1ccccc1 (configuration not stated),inactive
13,CCCN1CCCc2cc(CN(CCCN3CCOCC3)C(=O)Nc3ccc(Cl)c(Cl)c3)ccc21,inactive
14,CCCc1ccc(OCC(=O)Nc2sc3c(c2C(=O)OCC)CCC(C(C)(C)C)C3)cc1 (configuration not stated),inactive
15,Cc1ccc(-c2ccc(C3C(C#N)=C(N)Oc4n[nH]c(C)c43)o2)cc1 (configuration not stated),"inconclusive: 28.2 µM [activator, single point]"
16,Cc1c(/C=N/Nc2nc3ccccc3[nH]2)c2ccccc2n1C,inactive
17,Nc1cc(=O)nc(SCC(=O)Nc2ccccc2)n1CCc1ccccc1,inactive
18,O=S(=O)(c1cccs1)N1CN(CC2CCCO2)c2nc3ccccc3nc21 (configuration not stated),inactive
19,CSc1nnc(NC(=O)c2nc(S(=O)(=O)Cc3cccc(C)c3)ncc2Cl)s1,"inconclusive: 22.4 µM [activator, single point]"
20,CCOC(=O)CC(=O)CSc1nc2ccc(C)cc2cc1C#N,inactive
21,O=C1C(Cl)=C(Nc2ccccc2O)C(=O)N1CCc1ccccc1,"inconclusive: 11.2 µM [activator, single point]"
22,COc1ccccc1Nc1nc(-c2ccccc2)c(CC(=O)O)s1,"inconclusive: 7.94 µM [activator, partial curve]"
23,O=[N+]([O-])c1ccc(N=Nc2ncc[nH]2)cc1,"inconclusive: 5.62 µM [activator, single point]"
24,N#C/C(=C/c1ccc(N2CCCCCC2)o1)c1ccc(Cl)cc1,active: 11.2 µM

row,Compound,Potency
1,COc1cc2c(cc1OC)C(CC(=O)O)N(C(=O)Nc1cc(OC)c(OC)c(OC)c1)CC2 (configuration not stated),inactive
2,N#C/C(=C\c1ccc(F)cc1)c1nc(-c2ccco2)cs1,"inconclusive: 2 µM [activator, partial curve, poor fit]"
3,O=C(N/N=C/c1ccccc1F)c1cccc2ccccc12,"inconclusive: 2.51 µM [activator, full curve, poor fit]"
4,O=C(COc1ccccc1Cl)N1N=C(c2cccs2)CC1c1ccco1 (configuration not stated),"inconclusive: 31.6 µM [activator, single point]"
5,CCCN1C(=O)SC(CC(=O)Nc2ccccc2C)C1=O (configuration not stated),"inconclusive: 31.6 µM [activator, partial curve, poor fit]"
6,CCn1c(=NC(=O)c2ccco2)sc2cccc(F)c21,"inconclusive: 0.562 µM [activator, full curve, poor fit]"
7,Cc1ccc(C(=O)C=Cc2ccc3c(c2)OCO3)c(C)c1,"inconclusive: 20 µM [activator, single point]"
8,Cc1ccccc1OC(=O)CSc1nnc(-c2ccc(F)cc2)o1,inactive
9,CC(/C=C/c1ccccc1)=N\Nc1ccccc1[N+](=O)[O-],"inconclusive: 4.47 µM [activator, partial curve, poor fit]"
10,CCOC(=O)c1ccccc1N=Cc1c(O)c2ccccc2oc1=O,"inconclusive: 35.5 µM [activator, single point]"
11,COc1cccc(NC(=O)Cc2ccccc2)c1,inactive
12,Cc1c(-c2nc(-c3ccncc3)no2)cccc1[N+](=O)[O-],active: 11.2 µM
13,COc1cc(-c2noc(-c3ccco3)n2)cc(OC)c1OC,"inconclusive: 11.2 µM [activator, partial curve]"
14,O=[N+]([O-])c1cnc(Sc2ccncn2)c([N+](=O)[O-])c1,"inconclusive: 20 µM [activator, single point]"
15,N#C/C(=C\c1ccccc1)c1ccccn1,"inconclusive: 7.08 µM [activator, partial curve, poor fit]"
16,Cc1cc(NC(=O)c2c(F)c(F)c(F)c(F)c2F)no1,"inconclusive: 22.4 µM [activator, single point]"
17,O=C(CCS(=O)(=O)c1cccc2nsnc12)Nc1ccc(F)cc1,inactive
18,C=CCSc1nc2ccccc2n1C(=O)/C=C/c1ccc(OC)c(OC)c1,"inconclusive: 3.16 µM [activator, full curve, poor fit]"
19,O=C(/C=C/c1ccccc1)NC(=O)c1ccccc1O,"inconclusive: 20 µM [activator, single point]"
20,Cc1ccc(NC(=O)CSc2nc(-c3ccco3)nc3cc(=O)[nH]n23)cc1C,"inconclusive: 17.8 µM [activator, single point]"
21,O=c1cc(-c2ccccc2)nc2c(Cl)cc(Cl)cn12,active: 3.98 µM
22,CC(Nc1cccc2ccccc12)C(=O)N/N=C/c1ccc([N+](=O)[O-])cc1 (configuration not stated),inactive
23,COc1ccc(-c2cc(=Nc3c(C)n(C)n(-c4ccccc4)c3=O)c3ccccc3o2)cc1,"inconclusive: 10 µM [activator, partial curve]"
